Consider 63 sequences from PMC12820563.

This is one part of the list. The list includes weakly bound sequences.

In the experiment the target is T1, MBP-FoxP3dN (UniProt Q99JB6).
T1 sequence: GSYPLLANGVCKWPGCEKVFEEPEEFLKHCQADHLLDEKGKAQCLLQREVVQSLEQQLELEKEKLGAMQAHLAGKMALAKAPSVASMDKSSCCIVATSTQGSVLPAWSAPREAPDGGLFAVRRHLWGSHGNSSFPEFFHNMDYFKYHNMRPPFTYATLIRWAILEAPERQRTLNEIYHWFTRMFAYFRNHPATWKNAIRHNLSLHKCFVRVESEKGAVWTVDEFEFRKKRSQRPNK
Description: PD-seq (MBP pull-down with sequencing). Particulars: 20 mM Tris-HCl pH 7.5, 100 mM NaCl, 1.5 mM MgCl2, 0.4 uM protein, 0.1 uM dsDNA library, 30 min, room temperature, amylose pull-down; high values mean tight binding; double strand, one strand shown.
Consider “GATGATTGTTCTCCCAGCTGATGAATTGGGGGCTTCGAGTAAACAAATTTTCCTAATCTTTCTGTTCAAGCGCCATCTAC”, for which the binding signal (RPM ratio (pull-down/input)) turned out to be 0.475. The value for “GATGATTGTTCTCCCAGCTGATGAATTTATATTGTCGAGTAAACAAATTTTCCTAATCTTTCTGTTCAAGCGCCATCTAC” was 2.37; that for “GATGATTGTTCTCCCAGCTGATGAATTACTTCGCTCGAGTAAACAAATTTTCCTAATCTTTCTGTTCAAGCGCCATCTAC” was 0.286. To “GATGATTGTTCTCCCAGCTGATGAATTACTGAGTTCGAGTAAACAAATTTTCCTAATCTTTCTGTTCAAGCGCCATCTAC” belongs 0.515; to “GATGATTGTTCTCCCAGCTGATGAATTTGTAATGTCGAGTAAACAAATTTTCCTAATCTTTCTGTTCAAGCGCCATCTAC”, 3.87; to “GATGATTGTTCTCCCAGCTGATGAATTTCGCTATTCGAGTAAACAAATTTTCCTAATCTTTCTGTTCAAGCGCCATCTAC”, 2.44. To “GATGATTGTTCTCCCAGCTGATGAATTGCATTGATCGAGTAAACAAATTTTCCTAATCTTTCTGTTCAAGCGCCATCTAC” belongs 2.27. Turning to “GATGATTGTTCTCCCAGCTGATGAATTAGACATTTCGAGTAAACAAATTTTCCTAATCTTTCTGTTCAAGCGCCATCTAC”, the binding signal (RPM ratio (pull-down/input)) turned out to be 0.714. To “GATGATTGTTCTCCCAGCTGATGAATTAAGGCGATCGAGTAAACAAATTTTCCTAATCTTTCTGTTCAAGCGCCATCTAC” belongs 0.729. As for “GATGATTGTTCTCCCAGCTGATGAATTCCGACTCTCGAGTAAACAAATTTTCCTAATCTTTCTGTTCAAGCGCCATCTAC”, the binding signal (RPM ratio (pull-down/input)) amounted to 2.16.

Take “GATGATTGTTCTCCCAGCTGATGAATTCAGGCGTTCGAGTAAACAAATTTTCCTAATCTTTCTGTTCAAGCGCCATCTAC”: the binding signal (RPM ratio (pull-down/input)) was found to be 1.09.

Take “GATGATTGTTCTCCCAGCTGATGAATTGAGGGCATCGAGTAAACAAATTTTCCTAATCTTTCTGTTCAAGCGCCATCTAC”: the binding signal (RPM ratio (pull-down/input)) is 0.782. “GATGATTGTTCTCCCAGCTGATGAATTAAGAGGTTCGAGTAAACAAATTTTCCTAATCTTTCTGTTCAAGCGCCATCTAC”: the binding signal (RPM ratio (pull-down/input)) amounted to 0.358. Consider “GATGATTGTTCTCCCAGCTGATGAATTGTATTAGTCGAGTAAACAAATTTTCCTAATCTTTCTGTTCAAGCGCCATCTAC”, for which the binding signal (RPM ratio (pull-down/input)) worked out at 3.73. Take “GATGATTGTTCTCCCAGCTGATGAATTTATGCCATCGAGTAAACAAATTTTCCTAATCTTTCTGTTCAAGCGCCATCTAC”: the binding signal (RPM ratio (pull-down/input)) was found to be 3.33. Consider “GATGATTGTTCTCCCAGCTGATGAATTAATGCGCTCGAGTAAACAAATTTTCCTAATCTTTCTGTTCAAGCGCCATCTAC”, for which the binding signal (RPM ratio (pull-down/input)) came to 2.16. The value for “GATGATTGTTCTCCCAGCTGATGAATTCCCCTCGTCGAGTAAACAAATTTTCCTAATCTTTCTGTTCAAGCGCCATCTAC” was 0.241. The value for “GATGATTGTTCTCCCAGCTGATGAATTGTTACGATCGAGTAAACAAATTTTCCTAATCTTTCTGTTCAAGCGCCATCTAC” was 0.792; that for “GATGATTGTTCTCCCAGCTGATGAATTGTGCCGATCGAGTAAACAAATTTTCCTAATCTTTCTGTTCAAGCGCCATCTAC” was 1.02; that for “GATGATTGTTCTCCCAGCTGATGAATTGCTCCCTTCGAGTAAACAAATTTTCCTAATCTTTCTGTTCAAGCGCCATCTAC” was 0.468. Turning to “GATGATTGTTCTCCCAGCTGATGAATTAGCCTCGTCGAGTAAACAAATTTTCCTAATCTTTCTGTTCAAGCGCCATCTAC”, the binding signal (RPM ratio (pull-down/input)) came out at 0.702. To “GATGATTGTTCTCCCAGCTGATGAATTATTGTTTTCGAGTAAACAAATTTTCCTAATCTTTCTGTTCAAGCGCCATCTAC” belongs 3.7; to “GATGATTGTTCTCCCAGCTGATGAATTTAAAACGTCGAGTAAACAAATTTTCCTAATCTTTCTGTTCAAGCGCCATCTAC”, 0.239. To “GATGATTGTTCTCCCAGCTGATGAATTTTGTCCCTCGAGTAAACAAATTTTCCTAATCTTTCTGTTCAAGCGCCATCTAC” belongs 2.21; to “GATGATTGTTCTCCCAGCTGATGAATTGATGGAATCGAGTAAACAAATTTTCCTAATCTTTCTGTTCAAGCGCCATCTAC”, 0.283. To “GATGATTGTTCTCCCAGCTGATGAATTATCGTGTTCGAGTAAACAAATTTTCCTAATCTTTCTGTTCAAGCGCCATCTAC” belongs 0.652. “GATGATTGTTCTCCCAGCTGATGAATTGTATTACTCGAGTAAACAAATTTTCCTAATCTTTCTGTTCAAGCGCCATCTAC”: the binding signal (RPM ratio (pull-down/input)) came out at 1.8. In the case of “GATGATTGTTCTCCCAGCTGATGAATTTCAGACTTCGAGTAAACAAATTTTCCTAATCTTTCTGTTCAAGCGCCATCTAC”, the binding signal (RPM ratio (pull-down/input)) was determined as 0.327. To “GATGATTGTTCTCCCAGCTGATGAATTCGGGAGGTCGAGTAAACAAATTTTCCTAATCTTTCTGTTCAAGCGCCATCTAC” belongs 0.209. Consider “GATGATTGTTCTCCCAGCTGATGAATTCCCGCACTCGAGTAAACAAATTTTCCTAATCTTTCTGTTCAAGCGCCATCTAC”, for which the binding signal (RPM ratio (pull-down/input)) came to 0.458. On to “GATGATTGTTCTCCCAGCTGATGAATTGCAAAACTCGAGTAAACAAATTTTCCTAATCTTTCTGTTCAAGCGCCATCTAC”, for which the binding signal (RPM ratio (pull-down/input)) turned out to be 0.671. With “GATGATTGTTCTCCCAGCTGATGAATTCGCAAGCTCGAGTAAACAAATTTTCCTAATCTTTCTGTTCAAGCGCCATCTAC”, the binding signal (RPM ratio (pull-down/input)) stood at 0.44. Take “GATGATTGTTCTCCCAGCTGATGAATTAGCCTAATCGAGTAAACAAATTTTCCTAATCTTTCTGTTCAAGCGCCATCTAC”: the binding signal (RPM ratio (pull-down/input)) was determined as 0.387. To “GATGATTGTTCTCCCAGCTGATGAATTGGTCAGTTCGAGTAAACAAATTTTCCTAATCTTTCTGTTCAAGCGCCATCTAC” belongs 0.364. As to “GATGATTGTTCTCCCAGCTGATGAATTCTGCATGTCGAGTAAACAAATTTTCCTAATCTTTCTGTTCAAGCGCCATCTAC”, the binding signal (RPM ratio (pull-down/input)) was determined as 5.95. For “GATGATTGTTCTCCCAGCTGATGAATTCTGCGGCTCGAGTAAACAAATTTTCCTAATCTTTCTGTTCAAGCGCCATCTAC”, the binding signal (RPM ratio (pull-down/input)) is 1.01. As for “GATGATTGTTCTCCCAGCTGATGAATTTCACGGATCGAGTAAACAAATTTTCCTAATCTTTCTGTTCAAGCGCCATCTAC”, the binding signal (RPM ratio (pull-down/input)) came out at 0.176. The value for “GATGATTGTTCTCCCAGCTGATGAATTTAACCCCTCGAGTAAACAAATTTTCCTAATCTTTCTGTTCAAGCGCCATCTAC” was 0.318; that for “GATGATTGTTCTCCCAGCTGATGAATTGGAGCAGTCGAGTAAACAAATTTTCCTAATCTTTCTGTTCAAGCGCCATCTAC” was 0.328; that for “GATGATTGTTCTCCCAGCTGATGAATTGTTCCGTTCGAGTAAACAAATTTTCCTAATCTTTCTGTTCAAGCGCCATCTAC” was 0.418. Regarding “GATGATTGTTCTCCCAGCTGATGAATTGTACGGGTCGAGTAAACAAATTTTCCTAATCTTTCTGTTCAAGCGCCATCTAC”, the binding signal (RPM ratio (pull-down/input)) was 0.298. The value for “GATGATTGTTCTCCCAGCTGATGAATTTTGTCTTTCGAGTAAACAAATTTTCCTAATCTTTCTGTTCAAGCGCCATCTAC” was 2.51; that for “GATGATTGTTCTCCCAGCTGATGAATTAAACCGATCGAGTAAACAAATTTTCCTAATCTTTCTGTTCAAGCGCCATCTAC” was 0.285.

For “GATGATTGTTCTCCCAGCTGATGAATTGCAAGTGTCGAGTAAACAAATTTTCCTAATCTTTCTGTTCAAGCGCCATCTAC”, the binding signal (RPM ratio (pull-down/input)) was 1.16. For the sequence “GATGATTGTTCTCCCAGCTGATGAATTAACAGGATCGAGTAAACAAATTTTCCTAATCTTTCTGTTCAAGCGCCATCTAC”, the binding signal (RPM ratio (pull-down/input)) was 0.226. To “GATGATTGTTCTCCCAGCTGATGAATTCTGTTCTTCGAGTAAACAAATTTTCCTAATCTTTCTGTTCAAGCGCCATCTAC” belongs 0.746; to “GATGATTGTTCTCCCAGCTGATGAATTCGGCCAGTCGAGTAAACAAATTTTCCTAATCTTTCTGTTCAAGCGCCATCTAC”, 1.25. Consider “GATGATTGTTCTCCCAGCTGATGAATTGTTAACTTCGAGTAAACAAATTTTCCTAATCTTTCTGTTCAAGCGCCATCTAC”, for which the binding signal (RPM ratio (pull-down/input)) amounted to 0.587.

As for “GATGATTGTTCTCCCAGCTGATGAATTACAATCATCGAGTAAACAAATTTTCCTAATCTTTCTGTTCAAGCGCCATCTAC”, the binding signal (RPM ratio (pull-down/input)) was 1.11. “GATGATTGTTCTCCCAGCTGATGAATTTGAGGGCTCGAGTAAACAAATTTTCCTAATCTTTCTGTTCAAGCGCCATCTAC”: the binding signal (RPM ratio (pull-down/input)) turned out to be 0.419. The value for “GATGATTGTTCTCCCAGCTGATGAATTAACCTACTCGAGTAAACAAATTTTCCTAATCTTTCTGTTCAAGCGCCATCTAC” was 0.289; that for “GATGATTGTTCTCCCAGCTGATGAATTAGTCTAGTCGAGTAAACAAATTTTCCTAATCTTTCTGTTCAAGCGCCATCTAC” was 0.531; that for “GATGATTGTTCTCCCAGCTGATGAATTTCCAGGTTCGAGTAAACAAATTTTCCTAATCTTTCTGTTCAAGCGCCATCTAC” was 0.242. The value for “GATGATTGTTCTCCCAGCTGATGAATTTTCCTGATCGAGTAAACAAATTTTCCTAATCTTTCTGTTCAAGCGCCATCTAC” was 0.218; that for “GATGATTGTTCTCCCAGCTGATGAATTACATTCATCGAGTAAACAAATTTTCCTAATCTTTCTGTTCAAGCGCCATCTAC” was 0.575. With “GATGATTGTTCTCCCAGCTGATGAATTATGCACTTCGAGTAAACAAATTTTCCTAATCTTTCTGTTCAAGCGCCATCTAC”, the binding signal (RPM ratio (pull-down/input)) was determined as 1.99. For the sequence “GATGATTGTTCTCCCAGCTGATGAATTCAATTGGTCGAGTAAACAAATTTTCCTAATCTTTCTGTTCAAGCGCCATCTAC”, the binding signal (RPM ratio (pull-down/input)) is 2.04. Regarding “GATGATTGTTCTCCCAGCTGATGAATTGCACACGTCGAGTAAACAAATTTTCCTAATCTTTCTGTTCAAGCGCCATCTAC”, the binding signal (RPM ratio (pull-down/input)) worked out at 0.848. The value for “GATGATTGTTCTCCCAGCTGATGAATTCCACTTATCGAGTAAACAAATTTTCCTAATCTTTCTGTTCAAGCGCCATCTAC” was 0.7; that for “GATGATTGTTCTCCCAGCTGATGAATTGGTCTGGTCGAGTAAACAAATTTTCCTAATCTTTCTGTTCAAGCGCCATCTAC” was 0.316. To “GATGATTGTTCTCCCAGCTGATGAATTAGTTGCATCGAGTAAACAAATTTTCCTAATCTTTCTGTTCAAGCGCCATCTAC” belongs 3.86. For the sequence “GATGATTGTTCTCCCAGCTGATGAATTGCGTTCATCGAGTAAACAAATTTTCCTAATCTTTCTGTTCAAGCGCCATCTAC”, the binding signal (RPM ratio (pull-down/input)) was determined as 1.22. With “GATGATTGTTCTCCCAGCTGATGAATTCCGAAAGTCGAGTAAACAAATTTTCCTAATCTTTCTGTTCAAGCGCCATCTAC”, the binding signal (RPM ratio (pull-down/input)) turned out to be 0.229.
